# Over roughly 33,000 sequences, “E-score (-0.5 to 0.5)” has its median near -0.054; the highest 2% begin near 0.35. The list shows a part of the results.
# Target: T1, Stb5 (UniProt P38699)
# T1 sequence: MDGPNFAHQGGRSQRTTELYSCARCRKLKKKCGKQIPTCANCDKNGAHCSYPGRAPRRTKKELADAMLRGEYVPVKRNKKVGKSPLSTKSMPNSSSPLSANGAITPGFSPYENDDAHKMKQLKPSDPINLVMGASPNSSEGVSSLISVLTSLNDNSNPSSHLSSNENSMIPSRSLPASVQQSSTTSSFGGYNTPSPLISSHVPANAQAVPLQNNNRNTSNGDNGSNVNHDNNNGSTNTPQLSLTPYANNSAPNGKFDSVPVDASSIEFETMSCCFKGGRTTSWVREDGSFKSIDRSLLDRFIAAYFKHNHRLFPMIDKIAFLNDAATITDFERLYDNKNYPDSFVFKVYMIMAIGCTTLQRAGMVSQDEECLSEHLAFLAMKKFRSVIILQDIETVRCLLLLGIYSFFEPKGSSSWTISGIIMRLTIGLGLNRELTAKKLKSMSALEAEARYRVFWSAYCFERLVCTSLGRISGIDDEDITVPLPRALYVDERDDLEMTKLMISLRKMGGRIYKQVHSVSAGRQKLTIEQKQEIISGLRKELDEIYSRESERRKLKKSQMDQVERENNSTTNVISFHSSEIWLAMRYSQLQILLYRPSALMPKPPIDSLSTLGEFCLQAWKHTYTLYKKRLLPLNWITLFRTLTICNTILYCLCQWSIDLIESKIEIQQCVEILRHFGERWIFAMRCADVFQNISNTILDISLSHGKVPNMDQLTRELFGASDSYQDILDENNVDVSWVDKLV
# Experiment: PBM E-score (8-mer binding enrichment) (E-score (-0.5 to 0.5)); higher = stronger / more preferred TF binding; most listed sequences are background and not binding sites
# Conditions: protein concentration: 200 nM; construct: GST-full length
# Protocol: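 Universal 'all 10-mer' protein binding microarrays (Agilent AMADID 015681) probed with GST-tagged S. cerevisiae TFs (full-length or DBD) made by in vitro transcription/translation (PURExpress), about 100-200 nM. Bound TF was detected with fluorescent anti-GST. Each ungapped 8-mer (which stands for itself and its reverse complement) is scored by the PBM enrichment score (E-score), a modified Wilcoxon-Mann-Whitney statistic from -0.5 to +0.5, computed with the Universal PBM Analysis Suite. Scale: above 0.35 generally sequence-specific binding.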
row,Sequence,PBM E-score
1,CCTTCCGC,0.138
2,CGCCCCAC,-0.0903
3,AACGAGCC,-0.13
4,AGCTTGCC,-0.212
5,AGGACTCC,-0.136
6,GCGATGGA,0.262
7,AGTATATA,0.131
8,CCACTAGA,-0.0459
9,ACGTGGAG,-0.169
10,CCGGCTAC,0.154
11,AGACTGTC,-0.0493
12,CCCACGAG,-0.133
13,CTTGCCTC,-0.0773
14,ATGCCCTA,-0.0358
15,CCTCTTCG,-0.0468
16,CCAAATAG,-0.236
17,CTGAAAAC,-0.0564
18,CATAAATA,0.0322
19,CGGTGTAC,0.285
20,GAGGTATC,-0.0164
21,TCGAACGA,-0.164
22,ATACTGAC,-0.153

row,Sequence,PBM E-score
1,GCATTGCA,-0.124
2,AAGGGCAC,-0.257
3,CGCGGCTA,0.3
4,CGGAGTCC,0.199
5,ACGCAACC,-0.0595
6,ACTCATAA,-0.0403
7,AGCTCATG,-0.278
8,CTCTAAAG,-0.162
9,CTGACGCC,0.159
10,CTGCCCCC,-0.0747
11,AAAGGTAG,-0.25
12,ACCACCTA,-0.134
13,ATCCCTAG,-0.153
14,CACTGAAC,-0.169
15,ACGCGGTC,0.216
16,CGTTGGCA,0.0887
17,AACATCGT,0.0798
18,CTAGAGAC,-0.125
19,CTCGGAAG,-0.0763
20,GACCTCTC,-0.126
21,AACTACCG,0.31
22,GATAAACC,0.169

row,Sequence,PBM E-score
1,GGGGTTGA,0.133
2,ACATGTGC,-0.0551
3,CGGGTCGA,0.116
4,CCTACCGA,0.0132
5,AAAGGGTG,-0.115
6,ACGGATTG,0.099
7,GATGCTGC,-0.0585
8,ACCCCTCT,0.0376
9,CGGCTTTC,0.061
10,AGCTAGAG,-0.205
11,ACTCCTTC,-0.202
12,ACCGTGTG,0.134
13,GAGGTCTA,-0.245
14,CGCAATCC,0.0687
15,AATTACTC,-0.0204
16,GTTAGGCA,-0.213
17,ACTGTCAG,-0.155
18,ACGGTCTC,0.243
19,AGTACGCC,0.009
20,GGGTAGTA,-0.0884
21,CACATCAG,-0.0846
22,ATTAGTCG,0.0412

row,Sequence,PBM E-score
1,ACTCCCTA,-0.275
2,CGGCTTAG,0.00985
3,CCTAACAC,0.107
4,AAACTTCT,0.141
5,GGCAAGCC,-0.0595
6,AAGGACAA,-0.0259
7,AATTTGTG,-0.00811
8,CTGGGACA,-0.232
9,AACGCACT,0.0122
10,CCGGCTAA,0.191
11,GTAGCGCA,0.0352
12,GCGTATTA,-0.0551
13,TAGCGCAA,-0.0698
14,GCGGCAGC,0.16
15,TAACTATA,-0.017
16,GCCCAGGA,-0.199
17,AATCGAAT,0.0626
18,GACTAGCA,-0.14
19,ACGTAGGA,-0.111
20,CTTTAGAA,-0.0154

# Reference: the supplement of paper PMC3334620
